# Measurements: PubChem BioAssay AID504332 (National Center for Advancing Translational Sciences (NCATS), 2011)
# Where “and” joins values, the source holds several entries; their conditions need not be identical. Equal values may be shown once. Among all 350,000 compounds or so, about 31,000 (8.9%) were called active. The inconclusive results got no clear call from the source; some entries with a clear call stand among them for comparison. Calls come from the whole dose curve; as a rule, active = well fitted inhibition curve with a large enough effect; inconclusive = small, poorly fitted or top-dose-only effect; inactive = no such curve, though single readings can be large or run the other way. Potencies of inconclusive entries are doubtful fits and often do not repeat.
# Target: Histone-lysine N-methyltransferase EHMT2 (Homo sapiens) (UniProt Q96KQ7)
# Experiment: qHTS Assay for Inhibitors of Histone Lysine Methyltransferase G9a; note: nearly all actives have a fitted effect of over 75% in size
# Details: G9a H3K9 monomethylation, AlphaScreen, 2 h; activity, negative = inhibition: at 59 µM (top of the series) unless noted
# Summary of the method: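 AlphaScreen read-out: biotin-H3K9 peptide (500 nM) methylation by 20 nM enzyme with 20 uM SAM, 2 h at room temperature after 15 min compound preincubation; anti-monomethyl H3K9 antibody plus donor/acceptor beads, 10 min dark.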
# % is set by controls: 0 for no effect and ±100 for the full control effect; potency is the fitted concentration of half-maximal effect; tags give direction and shape of the fitted curve.
# Sequence of UniProt Q96KQ7 (Q96KQ7 whole entry, looked up): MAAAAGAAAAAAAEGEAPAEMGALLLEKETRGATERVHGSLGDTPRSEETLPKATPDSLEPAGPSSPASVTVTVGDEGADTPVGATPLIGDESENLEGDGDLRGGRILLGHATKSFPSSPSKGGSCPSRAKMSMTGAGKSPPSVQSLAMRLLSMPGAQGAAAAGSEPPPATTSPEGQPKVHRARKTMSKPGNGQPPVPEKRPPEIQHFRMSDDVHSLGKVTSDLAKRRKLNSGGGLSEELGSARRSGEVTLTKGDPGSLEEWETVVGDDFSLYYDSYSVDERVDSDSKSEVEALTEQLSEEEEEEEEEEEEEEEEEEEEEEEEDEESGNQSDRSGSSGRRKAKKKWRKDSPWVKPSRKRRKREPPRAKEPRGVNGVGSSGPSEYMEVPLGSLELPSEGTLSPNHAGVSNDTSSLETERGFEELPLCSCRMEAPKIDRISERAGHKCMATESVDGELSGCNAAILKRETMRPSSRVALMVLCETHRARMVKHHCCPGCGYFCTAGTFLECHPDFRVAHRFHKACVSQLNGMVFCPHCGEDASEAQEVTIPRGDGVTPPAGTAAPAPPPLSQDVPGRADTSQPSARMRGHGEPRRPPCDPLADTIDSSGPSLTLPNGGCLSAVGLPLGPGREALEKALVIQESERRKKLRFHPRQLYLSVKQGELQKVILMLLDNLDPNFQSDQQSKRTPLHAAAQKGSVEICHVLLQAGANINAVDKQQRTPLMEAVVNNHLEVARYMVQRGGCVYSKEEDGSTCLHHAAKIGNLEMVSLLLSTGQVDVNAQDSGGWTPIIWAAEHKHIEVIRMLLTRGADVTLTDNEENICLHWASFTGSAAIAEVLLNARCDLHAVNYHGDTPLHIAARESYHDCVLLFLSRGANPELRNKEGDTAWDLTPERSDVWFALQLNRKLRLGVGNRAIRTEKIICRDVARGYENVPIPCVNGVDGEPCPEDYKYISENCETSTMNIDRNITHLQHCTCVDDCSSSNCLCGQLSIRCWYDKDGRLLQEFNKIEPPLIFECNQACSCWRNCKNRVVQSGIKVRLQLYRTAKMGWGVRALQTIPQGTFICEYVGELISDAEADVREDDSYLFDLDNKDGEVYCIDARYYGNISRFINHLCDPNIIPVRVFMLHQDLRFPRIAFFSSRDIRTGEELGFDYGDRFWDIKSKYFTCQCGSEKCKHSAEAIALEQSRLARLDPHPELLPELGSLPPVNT
Compound,Potency,"activity, negative = inhibition"
COc1ccccc1OCC(O)CN1CCN(CC(=O)Nc2c(C)cccc2C)CC1 (stereo not given),inactive,
O=[N+]([O-])c1ccc(/C=C/c2nc3ccc([N+](=O)[O-])cc3[nH]2)cc1,"inconclusive: 1.58 µM [inhibitor, partial curve, poor fit]",
Cc1ccc(Cl)cc1N1CCN(Cc2nc3ccsc3c(=O)[nH]2)CC1,active: 2.82 µM,
COc1ccc(N(C(=O)C(C)C)S(=O)(=O)c2cccc([N+](=O)[O-])c2)cc1,"inconclusive: 0.282 µM [inhibitor, full curve, poor fit]",
CCCOc1cc(CN2CCCCC2)cc(C(C)=O)c1,"inconclusive: 20 µM [inhibitor, partial curve, poor fit]",
Cc1ccc(S(=O)(=O)N2C(=O)C(c3ccccc3)SC2=Nc2ccccc2)cc1 (stereo not given),active: 7.94 µM,
Cc1ccc2c(c1)NC(=O)C(CC(=O)NC1CCCCC1C)O2 (stereo not given),active: 44.7 µM,
Cc1ccc(N2CC(NC(=O)C3CCCCC3)CC2=O)cc1C (stereo not given),inactive,
COc1ccc(C2OC(=O)CC2C(=O)NC(C)C)cc1 (stereo not given),active: 28.2 µM,
C/C(CCc1ccccc1)=N/NC(=O)C(=O)NCc1ccccc1,"inconclusive: 50.1 µM [inhibitor, partial curve]",
CNC[C@H](NC[C@@H](NCCCc1ccccc1)c1ccccc1)[C@H](C)O,inactive,
COc1ccc(CC(=O)NNc2ncnc3c2cnn3-c2ccc(C)cc2)cc1,"inconclusive: 89.1 µM [inhibitor, single point]",
COC(=O)c1ccc(NC(=O)C2C3C=CC(O3)C2C(=O)O)cc1 (stereo not given),,inconclusive: -95.5% [inhibitor]
CCOC(=O)Cn1nnnc1C(CC)N(Cc1cccs1)Cc1cc2ccc(OC)cc2[nH]c1=O (stereo not given),"inconclusive: 70.8 µM [inhibitor, single point]",
Cc1ccc2c(c1)CCCN2C(=O)c1cc2ccccc2oc1=O,"inconclusive: 89.1 µM [inhibitor, single point]",
O=C(CN1CCN(c2ccc(F)cc2)CC1)c1cccs1,active: 15.8 µM,
Oc1ccc(C=NC2CCCCC2)c(O)c1,"inconclusive: 44.7 µM [inhibitor, partial curve, poor fit]",
CC(=O)NC(CC(=O)Nc1ccc(S(=O)(=O)Nc2nccs2)cc1)c1ccccc1 (stereo not given),"inconclusive: 35.5 µM [inhibitor, partial curve, poor fit]",
CCN(c1ccccc1)S(=O)(=O)c1nnc(NC(=O)c2ccco2)s1,"inconclusive: 4.47 µM [inhibitor, single point] and inconclusive: 89.1 µM [inhibitor, single point]",
Cc1ccccc1-c1nnc(SCC(=O)N2CCCCC2)o1,"inconclusive: 17.8 µM [inhibitor, partial curve, poor fit]",
O=C(Nc1cc(Cl)cc(Cl)c1)c1ccc(F)c(S(=O)(=O)NCc2ccccc2Cl)c1,inactive,
FC(F)(F)c1cc(-c2cccs2)nc2cc(-c3cccs3)nn12,inactive,
COc1cccc(CNC(=O)CSC(=S)N2CCCC2)c1,inactive,
CCOC(=O)CCS(=O)(=O)c1nc(-c2ccccc2)cc(C(F)(F)F)n1,active: 2.82 µM,

Compound,Potency,"activity, negative = inhibition"
COc1cc(/C=C(\C#N)C(=O)Nc2nnc(C(F)(F)F)s2)ccc1OCc1ccc(C(F)(F)F)cc1C(F)(F)F,active: 8.44 µM,
C/C=C/c1ccc(OCCCNC2CCCC2)c(OC)c1,"inconclusive: 3.55 µM [inhibitor, partial curve, poor fit]",
Cc1ccc(C(=O)CCNc2cccc(Br)c2)o1,inactive,
CCn1c(-c2cc(-c3ccccc3OC)nc3ccccc23)n[nH]c1=S,active: 2.82 µM,
COc1ccc(CCNC(=O)CCCn2nc(C)c3sc4ccccc4c3c2=O)cc1OC,"inconclusive: 28.2 µM [inhibitor, single point]",
O=C(NNS(=O)(=O)c1ccc2ccccc2c1)c1cc(-c2ccccn2)nc2ccccc12,active: 79.4 µM,
Cn1c(=O)cc(OCC(=O)NCc2ccc(F)cc2Cl)c2ccccc21,inactive,
Cc1csc2nc(COc3ccccc3NC(=O)c3ccccc3Cl)cc(=O)n12,inactive,
O=c1c2cc(N3CCOCC3)ccc2[nH]c(=S)n1Cc1ccc(Cl)cc1,inactive,
Cn1c(N)c(S(=O)(=O)N2CCCC2)c(=O)n(C)c1=O,"inconclusive: 89.1 µM [inhibitor, single point]",
O=C(O)CCCN1C(=O)/C(=C/c2ccc(-c3nc4ccccc4s3)o2)SC1=S,"inconclusive: 8.91 µM [inhibitor, partial curve, poor fit]",
O=C(Nc1ccccc1)Nc1ccccc1,,inactive: -27.9% [at 2.33 µM]
NC12CCc3c(no[n+]3[O-])C1(O)CC(c1ccccc1)=[N+]2[O-] (stereo not given),"inconclusive: 14.1 µM [inhibitor, partial curve, poor fit]",
CN(C)c1ccc(C(c2nnnn2C(C)(C)C)N2CCc3ccccc3C2)cc1 (stereo not given),active: 39.8 µM,
CCN(CC)P(=O)(/C(Cl)=C\Nc1c(C)n(C)n(-c2ccccc2)c1=O)N(CC)CC,active: 31.6 µM,
COCCCN=C(c1ccco1)n1c(=S)nc(-c2ccco2)n(CCCOC)c1=S,active: 7.94 µM,
CCCc1nnc(SCC(=O)NC2CC2)n1C,inactive,
Cc1[nH]n(-c2ccccc2)c(=O)c1/C=N/NC(=O)c1cccc([N+](=O)[O-])c1,,inactive: 30.8% [at 2.33 µM]
COc1cc(C(C#N)N2CCC(c3ccccc3)=N2)ccc1O (stereo not given),active: 10 µM,
COC(=O)c1cc(NS(=O)(=O)c2ccc(N3CCOCC3)c([N+](=O)[O-])c2)cc(C(=O)OC)c1,"inconclusive: 12.6 µM [inhibitor, partial curve, poor fit]",
CC(=O)Nc1ccc(S(=O)(=O)N2CCN(CC3CC4C=CC3C4)CC2)cc1 (stereo not given),active: 28.2 µM,
CCOc1ccc2c(c1)[nH]c(=S)n2C,active: 7.94 µM,
Cc1ccc(NCc2nnc(SCC(=O)Nc3ncc(C)s3)n2Cc2ccco2)c(C)c1,"inconclusive: 56.2 µM [inhibitor, partial curve, poor fit]",
Fc1ccc(N2CCN(c3nc(CN4CCOCC4)nc4scc(-c5ccccc5)c34)CC2)cc1,active: 8.91 µM,

Compound,Potency,"activity, negative = inhibition"
CCc1cccc(OCCOCCN2CCCC2)c1,active: 10 µM,
CC(C)c1cc(C(=O)OCC(=O)NC(=O)NCc2ccco2)c(O)c(C(C)C)c1,"inconclusive: 31.6 µM [inhibitor, partial curve, poor fit]",
CC(C)(C)c1ccc(OCCC(=O)OCC(=O)N2c3ccccc3NC(=O)C2(C)C)cc1,"inconclusive: 50.1 µM [inhibitor, partial curve, poor fit]",
CCC(CO)(CO)N(CC(=O)Nc1ccc(OC)cc1)CC(=O)Nc1ccc(OC)cc1,"inconclusive: 56.2 µM [inhibitor, partial curve, poor fit]",
CN(C)c1ccc(C(CNS(=O)(=O)c2ccc([N+](=O)[O-])cc2)N2CCCC2)cc1 (stereo not given),active: 44.7 µM,
N=c1c(C(=O)NCc2ccccc2)cc2c(=O)n3ccccc3nc2n1Cc1ccco1,"inconclusive: 79.4 µM [inhibitor, single point]",
CSc1nc(N(C)NC(=O)c2ccc(F)cc2)c2ccccc2n1,"inconclusive: 35.5 µM [inhibitor, partial curve, poor fit]",
CC(C)C1N=C2c3ccccc3N=C(SCC#N)N2C1=O (stereo not given),"inconclusive: 79.4 µM [inhibitor, single point]",
N#Cc1ccc(CN2CC3(CCN(C(=O)c4ccncc4)CC3)C2)cc1,,inactive: -7.08% [at 12.7 µM]
CCc1ccc2c(c1)NC(c1cccnc1)=NC(c1ccc(C(C)(C)C)cc1)=N2,"inconclusive: 5.01 µM [inhibitor, partial curve, poor fit]",
CC(Sc1nnc(-c2cccnc2)n1N)C(=O)Nc1ccc2c(c1)OCCO2 (stereo not given),active: 56.2 µM,
Cc1oc(/C=N/NC(=O)CN(c2ccccc2Cl)S(C)(=O)=O)cc1Br,"inconclusive: 39.8 µM [inhibitor, single point]",
Cc1ccc(C)c(N2CCN(S(=O)(=O)c3cc(C(=O)Nc4cc(Cl)cc(Cl)c4)ccc3F)CC2)c1,inactive,
COc1ccc(/C=C/c2nc(C#N)c(N3CCC(C)CC3)o2)cc1OC,"inconclusive: 22.4 µM [inhibitor, partial curve, poor fit]",
COc1ccccc1CNC(=O)C(=O)c1cn(CC(=O)N2CCCC2)c2ccccc12,inactive,
CCOc1ccc(C(=O)Nc2cccc(-c3nc4cccnc4s3)c2C)cc1OCC,"inconclusive: 25.1 µM [inhibitor, partial curve, poor fit]",
O=C1CS/C(=C\[N+](=O)[O-])N1c1ccccc1,,inactive: 51.5% [at 12.7 µM]
COc1ncc2nc(-c3ccc(F)cc3)c(=O)n(Cc3cccs3)c2n1,,inactive: 7.76% [at 0.501 µM]
CCN(CC)CC#CCOC(c1ccccc1)c1ccccc1,"inconclusive: 10 µM [inhibitor, full curve]",
COc1ccc(-n2cnc3cc(NS(=O)(=O)c4ccccc4)ccc32)cc1,"inconclusive: 39.8 µM [inhibitor, single point]",
CCN(C(=O)COC(=O)c1ccccc1Cc1ccccc1)C1CCS(=O)(=O)C1 (stereo not given),"inconclusive: 89.1 µM [inhibitor, single point]",
CCOc1ccc2nc(COC(=O)c3ccco3)c(C(C)=O)[n+]([O-])c2c1,"inconclusive: 22.4 µM [inhibitor, partial curve, poor fit]",
